Test results as given in PubChem BioAssay AID1240 (Sanford-Burnham Center for Chemical Genomics, 2008).
In all, about 50,000 compounds went through this assay and about 800 (1.6%) showed an effect of 50% or more. The list shows a part of the results.

Target: Bcl-2-like protein 10 (Homo sapiens) (UniProt Q9HD36)
Assay: Phenotype converters, Bcl-B/TR3 peptide binding displacement, primary biochemical FP (AID 1240);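 note: 0% = Bcl-B with tracer peptide and DMSO and 100% = tracer peptide lacking Bcl-B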
Settings: GST-Bcl-B / FITC-TR3 peptide fluorescence polarization; stronger effect = higher value; compound at 3.75 mg/L

Sequence of UniProt Q9HD36 (Q9HD36 whole entry, looked up): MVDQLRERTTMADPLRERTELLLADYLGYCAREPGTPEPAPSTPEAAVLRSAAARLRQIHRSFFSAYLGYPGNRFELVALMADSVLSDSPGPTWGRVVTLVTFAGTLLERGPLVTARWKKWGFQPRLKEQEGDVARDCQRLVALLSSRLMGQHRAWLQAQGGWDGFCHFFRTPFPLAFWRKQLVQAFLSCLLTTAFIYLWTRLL

Structure (SMILES)	displacement
O=C(O)CCCCCN1C(=O)C(=O)/C(=C(/O)c2ccc([N+](=O)[O-])cc2)C1c1ccc(F)cc1 (configuration not stated)	-0.4%
NC(=O)C1(c2ccccc2)CCCN1C(=O)c1ccccc1Br (configuration not stated)	-1.3%
CCOC(=O)c1sc2nc3n(c(=O)c2c1C)CCC3	23.2%
C=CCc1cccc2cc(C(=O)N3CCN(C)CC3)c(=O)oc12	1.9%
O=C(Cn1cnc([N+](=O)[O-])n1)Nc1cc(Sc2ccc(Br)cc2)cc([N+](=O)[O-])c1	-0.7%
COC(=O)c1cc(NC(=O)c2cccc(OC(C)C)c2)cc(C(=O)OC)c1	0.7%
CCN(CC)CCN1C(=O)C(O)=C(C(=O)/C=C/c2ccccc2)C1c1ccc(Cl)cc1 (configuration not stated)	15.9%
CS(=O)(=O)N(Cc1ccc(C(=O)Nc2ccc(F)cc2)cc1)c1ccccc1	5.7%
COc1ccc(C(=O)/C=C\Nc2ccc(Cl)cn2)cc1	-23.9%
CC(=O)/C(C=Nc1cc(C(F)(F)F)ccc1Cl)=C(\C)O	-4.5%
COc1ccc(S(=O)(=O)N=C2C=CC(=NS(=O)(=O)c3ccc(OC)cc3)C=C2)cc1	-1.8%
Cc1ccc(-c2[nH]n3c(=O)cc(-c4ccc([N+](=O)[O-])cc4)nc3c2C)cc1	7.6%
O=C(/C=C/c1cccc(C(F)(F)F)c1)Nc1ccc(Cl)cc1	13.9%
CCC1=NN2C(=N)/C(=C/c3ccc(Br)cc3)C(=O)N=C2S1	4%
N#Cc1cc2c(nc1SCC(=O)Nc1ccc(S(N)(=O)=O)cc1)CCCC2	4.3%
O=C(Nc1cnc2ccccc2c1)C1COc2ccccc2O1 (configuration not stated)	-15.1%
COc1cccc(C(=O)N2CCOCC2)c1	2.3%
COc1ccccc1NC(=O)c1ccc(N(Cc2ccccc2)S(C)(=O)=O)cc1	-6.5%
Cc1nnc(/N=C2\C(=O)Nc3ccccc32)s1	-6%
COC(=O)c1ccccc1NC(=O)CN(c1cccc(OC)c1)S(=O)(=O)c1ccccc1	2.4%
Cc1cccc(NCCC(=O)c2ccc([N+](=O)[O-])cc2)c1C	-13%
COc1ccccc1N1C(=O)c2ccc(C(=O)Nc3ccc(Sc4ccc([N+](=O)[O-])cc4)cc3)cc2C1=O	6.8%

Structure (SMILES)	displacement
Cc1ccc(N=Cc2ccc(C#N)cc2)cc1I	0.3%
O=C(CC1SC(=Nc2ccccc2)N(c2ccccc2)C1=O)Nc1cccc(Cl)c1 (configuration not stated)	-16.4%
Cn1c(=O)c([N+](=O)[O-])c(N2CCN(C(c3ccccc3)c3ccccc3)CC2)c2ccccc21	9.5%
O=C1NC(=S)S/C1=C/c1cc(I)c(O)c(I)c1	-96.1%
CCOc1cc(/C=N\n2cnnc2)ccc1OCCOCCOc1ccc(C)cc1	-3.1%
O=C(NCCO)/C(=C\c1ccco1)NC(=O)c1cccs1	-6.8%
Cc1c(NC(=O)c2cc3cc([N+](=O)[O-])ccc3oc2=O)c(=O)n(-c2ccccc2)n1C	1.1%
O=C(Nc1sc2c(c1C(=O)Nc1ccc(Cl)cc1)CCCC2)c1ccc([N+](=O)[O-])cc1	13.2%
O=C1C2C3C=CC(C3=C(c3ccccc3)c3ccccc3)C2C(=O)N1c1cc(C(F)(F)F)ccc1Cl (configuration not stated)	-9.1%
CSc1ccccc1NC(=O)c1ccc([N+](=O)[O-])cc1	10.7%
COc1cc2c(C)nc3c(c(C)nn3-c3ccccc3)c2cc1OC	59.5%
COCCNC(=O)CN(c1ccc(C)cc1)S(=O)(=O)c1ccc(OC)c(OC)c1	5.4%
CCOC(=O)c1c(C)nc2cc(C)ccn12	9.8%
O=C(COc1ccc2ccccc2c1Br)c1ccc(Br)cc1	4.5%
CN1C(=O)C(=Cc2cc([N+](=O)[O-])ccc2O)C(=O)N(C)C1=O	16.6%
O=C(CSc1nnc(-c2ccncc2)n1-c1ccccc1)NCc1ccco1	-0.5%
COC(=O)Nc1ccc(S(=O)(=O)N2CCN(C)CC2)cc1	2.5%
O=c1oc2cc(OCc3ccc([N+](=O)[O-])cc3)ccc2c2c1CCC2	-2.5%
Cc1ccc(-c2[nH]n3c(=O)c(Cl)c(C)nc3c2C)cc1	-9%
O=C(NCC1COc2ccccc2O1)c1ccccc1 (configuration not stated)	2.1%
Cc1onc(-c2ccccc2Cl)c1C(=O)Nc1ccc2c(c1)OCO2	0.2%
Cc1cccc(NC(=O)C2CC(=O)N(c3ccccc3)C2)c1 (configuration not stated)	-3%

Structure (SMILES)	displacement
O=C(O)CCC(=O)NNc1ccccc1[N+](=O)[O-]	-8.9%
Cc1ccc2nc(-c3ccc(NC(=O)C4CCC(C)(C(=O)O)C4(C)C)cc3)sc2c1 (configuration not stated)	-5.5%
CCOC(=O)C1=C(C)N=c2s/c(=C\c3ccc(OC(C)=O)cc3OC(C)=O)c(=O)n2C1c1ccccc1 (configuration not stated)	-9.4%
O=C1CC(NCc2ccc(Cl)cc2)C(=O)N1c1ccc(Br)cc1 (configuration not stated)	-4.5%
O=C1CC(c2ccccc2)CC(O)=C1C=Nc1ccc(Cl)cc1C(=O)c1ccccc1 (configuration not stated)	-8.3%
N/C(=N\OC(=O)COc1ccc2ccccc2c1)c1cccc([N+](=O)[O-])c1	3.6%
O=C(O)C1C2CCCC1C2c1ccccc1 (configuration not stated)	-1.9%
O=C(Nc1ccc(F)cc1)c1cc2ccccc2oc1=O	12.8%
O=C(CSCC(=O)Nc1ccccc1[N+](=O)[O-])Nc1ccc2ccccc2c1	10.1%
CCc1nnc(NS(=O)(=O)c2ccc(NS(=O)(=O)c3ccc4ccccc4c3)cc2)s1	5.8%
C/C(=C/C(=O)c1ccc(Cl)cc1)Nc1cccc(O)c1	8.2%
O=C(CCN1C(=O)/C(=C/c2ccc(Cl)cc2)SC1=S)Nc1nccs1	14.9%
CCN(CC)C1=NC(C(F)(F)F)(C(F)(F)F)N=C(OC(C)C)O1	-7.3%
CCOc1ccc(Nc2nc(-c3ccccn3)cs2)cc1	-13.9%
O=C1C2=C(NC3=C(C(=O)c4ccccc43)C23C(=O)Nc2ccccc23)c2ccccc21	13%
COc1cccc(OCCn2cc(/C=C3/SC(=S)NC3=O)c3ccccc32)c1	-15.1%
O=C(O)c1ccccc1NC1=C(Cl)C(=O)N(c2ccc(Br)cc2)C1=O	16%
C=CCn1c(=S)[nH]c2sc3c(c2c1=O)CCC(C)C3 (configuration not stated)	13.2%
Cc1cc2nc(Nc3nc(O)cc(=O)[nH]3)nc(C)c2cc1C	-19.4%
Cc1sc(/N=C/c2c(O)ccc3ccccc23)c(C#N)c1C	2.9%
COc1ccc(S(=O)(=O)N2CCN(Cc3ccccc3F)CC2)cc1	-10.9%
COc1cc(/C=C2/C(=O)NN(c3ccc(Cl)cc3)C2=O)ccc1O	0.9%

Structure (SMILES)	displacement
O=C1c2ccccc2C(=O)N1CSc1nc(-c2ccccc2)cc(-c2ccccc2)n1	-1.9%
Cc1ccccc1C(=O)NN1C(=O)/C(=C/c2cccc(O)c2)SC1=S	-16.7%
CN(C)CCC(=O)c1cccs1	4.3%
O=C(NN1C(=O)C2C3C=CC(C4CC34)C2C1=O)c1ccc(Cl)cc1Cl (configuration not stated)	1.6%
O=C(COc1ccccc1[N+](=O)[O-])Nc1ccc(I)cc1Cl	-0.1%
CN(C)c1ccc(/C=N/n2cnnc2SCc2ccccc2)cc1	2.2%
O=C(CC1Sc2ccc(C(F)(F)F)cc2NC1=O)Nc1ccc([N+](=O)[O-])cc1 (configuration not stated)	0.4%
Cc1ccc(N2C(=O)NC(=O)/C(=C\c3ccc(N4CCOCC4)o3)C2=O)cc1	-5.9%
CCOc1ccc(NC(=O)/C(=C\c2ccccc2Cl)NC(=O)c2ccc(C)cc2)cc1	-1.2%
COc1ccccc1N(CC(=O)NCCOc1ccc(Cl)cc1)S(=O)(=O)c1ccccc1	-6.4%
O=C(COc1ccc(Br)cc1)NNC(=O)c1ccco1	15.3%
COc1ccccc1OCC(=O)Nc1ccc(C(=O)O)cc1	1%
C/C(=N\N=C1\NC(=O)C(CC(=O)Nc2ccccc2)S1)C(C)C (configuration not stated)	-26.8%
CC(C)C(=O)N1c2ccccc2NC2=C(C(=O)CC(C)(C)C2)C1c1cccnc1 (configuration not stated)	-4.7%
CC(=O)c1cccc(NC(=O)c2cccc(OCc3ccccc3)c2)c1	-9.5%
COc1ccc(S(=O)(=O)N(CC(=O)NCc2ccc(Cl)cc2)Cc2ccccc2)cc1	7.8%
CC1(C)CC(=O)C=C(NNC(=O)Cc2ccccc2)C1	5.8%
O=C(Oc1ccc2oc(=O)sc2c1)c1ccccc1Br	7.5%
O=C(c1cc(I)ccc1Cl)N1CCN(c2ccc([N+](=O)[O-])cc2)CC1	16.6%
COc1cc(/C=C2/C(=O)NC(=O)N(c3cccc(C)c3)C2=O)ccc1OCC(=O)O	-14.8%
CC(C)(C)NC(=O)c1ccccc1N(Cc1ccccc1)S(=O)(=O)c1ccccc1	-1.7%
CNC(=O)C1CC(=O)N(c2ccc(F)cc2)C1 (configuration not stated)	3.4%

Structure (SMILES)	displacement
Cc1cc(Br)cc(C)c1NC(=O)c1cccnc1	2.1%
COc1ccc(NC(=O)Nc2nnc(-c3ccc(F)cc3)s2)cc1	3.4%
CC(C)OC(=O)c1ccccc1OC(=O)c1sc2ccccc2c1Cl	-13.2%
CCOC(=O)C(=Cc1cc(OC)c(O)c([N+](=O)[O-])c1)C(=O)OCC	14.2%
Cc1ccc(OCC(=O)Nc2cccc(-c3nc4ncccc4o3)c2)cc1C	-5.9%
CCOC(=O)c1cc(-c2ccccc2)oc1CN1CCOCC1	14.7%
COc1cc(OC)cc(C(=O)Nc2cccc(C(C)=O)c2)c1	-5.3%
CCc1ccccc1NC(=O)c1ccncc1	-2.1%
CC(=O)Nc1cc(-c2ccc(C)cc2)nn1Cc1ccccc1	1.7%
O=C(c1cccc(F)c1)N1CCN(Cc2cccc(Oc3ccccc3)c2)CC1	-8.1%
COc1ccc(C(=O)OCCNC(=O)c2ccc[n+](C)c2)cc1	-16%
O=c1/c(=C\c2ccccc2OCc2cccc3ccccc23)sc2nc3ccccc3n12	104%
Cc1ccccc1OCC(=O)Nc1ccc(I)cc1	-1.7%
O=c1[nH]c(/C=C/c2cc([N+](=O)[O-])ccc2O)c([N+](=O)[O-])c(=O)[nH]1	9.1%
CC1=NNC(=O)C1CC(=O)N/N=C/c1ccccc1 (configuration not stated)	-8.1%
O=C(c1ccc(F)cc1)N1CCN(CCCc2ccccc2)CC1	10%
O=S(=O)(c1ccccc1)N1CCN(C2CCC(c3ccccc3)CC2)CC1 (configuration not stated)	5.6%
O=C(CC1S/C(=N\N=C\c2ccccc2)NC1=O)Nc1ccccc1F (configuration not stated)	8.3%
COc1cccc(C=C2C(=O)NC(=S)NC2=O)c1OC	1.4%
